# Measured values reported in the supplement of paper PMC10126150.
# Sequences with one replicate were seen in a single cluster, so their values are uncertain.
# Tested on: ATP
# Assay: switch fluorescence ratio, 500 uM ATP over buffer (Cy3 cluster intensity, sum of 5 cycles each) (fold (ratio)); higher = stronger signal-on switching upon ATP binding
# Details: aptamer strand: ATP DNA aptamer (quencher-CACCTGGGGGAGTATTGCGGAGGAAGG + anchor), 100 nM annealed; ATP concentration: 500 uM; one replicate
# Summary of the method: (§1)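 Between each of five buffer/ATP cycles, the flow-cell was stripped with NaOH and re-annealed. Each cycle imaged Cy3-labelled switching-strand clusters, annealed to 100 nM quencher-labelled ATP aptamer on a modified Illumina MiSeq flow-cell, first in selection buffer and then after 15 min with 500 uM ATP at 22 °C. The fluorescence ratio is summed target-cycle over summed buffer-cycle Cy3 intensity per cluster, averaged per switch-domain sequence, with clusters outside 100-1000 RFU excluded.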
# 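Note: ATP exposure 15 min at 22 °C before imaging.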
row,Sequence,switch fluorescence ratio
1,TCGTCGGCAGCGTCAGATGTGTATAAGAGACAGTTTTTTTTTTTTTTTTTTTTTTTTTTGGTC,0.972

# Tested on: ATP
# Assay: switch fluorescence ratio, 500 uM ATP over buffer (Cy3 cluster intensity, sum of 5 cycles each) (fold (ratio)); higher = stronger signal-on switching upon ATP binding; sequences stand for … in TCGTCGGCAGCGTCAGATGTGTATAAGAGACAGTTTTTTTTTTTTTTTTTTTTTTTTT…TC
# Details: aptamer strand: ATP DNA aptamer (quencher-CACCTGGGGGAGTATTGCGGAGGAAGG + anchor), 100 nM annealed; ATP concentration: 500 uM; one replicate
# Summary of the method: as §1
row,Sequence,switch fluorescence ratio
1,TGGTCCTCTG,1.03
2,TATGGTGTGT,0.983
3,CTATGTGCCT,1.03
4,ATTCGACTAG,0.945
5,TACCAGGGCG,1.08
6,AGATTACGTT,1.01
7,GTTTCATGTA,0.974
8,AGTCAACTTA,1.02
9,TTCCAGATA,1.09
10,CAGGAGAGGT,1.05
11,TAGTATGTCC,1.04
12,CACCAACACG,1.31
13,ATTTTAAAAC,1.01
14,AGCTATGAGA,1.02
15,CAATGTGAAC,1.03
16,ACCCACAGCA,1.41
17,CTGTTGTTAT,0.959
18,GGGTGCGGGA,0.967
19,GGAGACGTAG,0.938
20,ATATTTCCAG,1.01
21,GCACCCTCTG,1.03
22,AGATACTGGG,1.07

row,Sequence,switch fluorescence ratio
1,GCTAGAAAGG,0.995
2,CGGTTCCAGT,1.05
3,TTAACCTATC,1.12
4,GTTCTACGAA,0.994
5,ACGGGTGAAG,1
6,TAGGCATGCT,1.03
7,TTTAACGCA,1.09
8,TTGGGACGCG,1.11
9,CATAATAGCG,1.03
10,AGAGTGTGT,1.01
11,AATCATTAAA,0.975
12,ATCTCCCAGG,1.15
13,TGCCACCATT,0.972
14,CTTTAGGGGT,0.99
15,GGAAACTGAT,1.01
16,GGGGTGGTG,0.972
17,GGGGTGAACT,1.01
18,GACTGGACAA,1.05
19,GACCGCAGCG,1.05
20,GAAATAGTCA,1.02
21,GCCGGAGGCC,1.04
22,CCTTGCCAGG,1.43

row,Sequence,switch fluorescence ratio
1,ACTACCACA,1.3
2,CATAGAATGA,0.967
3,TGCCAAGAGC,1.05
4,TCGAAAAAAT,1.25
5,AAAGAATCAT,0.986
6,TCATAGAGAA,1.03
7,TAATTCTGGA,1.02
8,GATGGCCGTT,0.995
9,GAGGGTGAAG,1
10,GGAAAGAGAA,0.998
11,GACCCGGGGA,0.998
12,TGCTTCAGTA,1.04
13,GGGCAAAATA,1.02
14,CTTGCAGGAT,1.02
15,AACGGGAGTA,0.999
16,ACACTCTCTA,1.03
17,TAGTCAGCTG,0.969
18,TAGCGCTCCT,1.03
19,TGCTACGGAA,4.33
20,AGTTAGCTCG,1.03
